Data published in patent US9345663B2 (priority 2000, dated 2016).

How the values were obtained:
[1] = Osmolality and pH of the aerosol formulation; type: physicochemical
[2] = in vivo

Structure (SMILES): C[C@H]1[C@H](NC(=O)/C(=N\OC(C)(C)C(=O)O)c2csc(N)n2)C(=O)N1S(=O)(=O)O.NCCCC[C@H](N)C(=O)O [aztreonam lysinate]
- pH of the solution ([1]; 75 mg aztreonam and 47 mg lysine reconstituted with 1 mL 0.17% NaCl): 4.2-7.0
- osmolality ([1]; about 50 mg per 1 mL of 0.2 NS): about 290 mOsm/l
- tolerability of aerosol [2]: well tolerated and safe
